Assay results: PubChem BioAssay AID1508624 (National Center for Advancing Translational Sciences (NCATS), 2021)
Screen size: about 48,000 compounds; about 120 (0.25%) were called active. Not shown: some 4% with an inconclusive outcome. Calls follow the shape of the dose curve; as a rule, active = well fitted activation curve with a large enough effect; inconclusive = small, poorly fitted or top-dose-only effect, or another doubt; inactive = no such curve, though single readings can be large or run the other way. This is one part of the list.

Test: Primary qHTS for Identification of Small Molecule Activators of Huntingtin-Antisense Promoter Activity; also: nearly all actives have a fitted effect of over 55% in size
Details: HEK293 HTT-AS promoter firefly luciferase reporter, 24 h; series mostly up to 57.5 µM; activity change, positive = activation: at the top concentration
In short: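 Firefly luciferase readout (Dual-Glo, 10 min RT) after 24 h, 37 °C compound exposure (final up to 57.5 uM) of HEK293 reporter cells cultured 24 h beforehand; PTC124 at 50 uM final as control inhibitor; activity scaled vehicle 0%, zero RLU -100%.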

Activity change, positive = activation, inactive:
CCCCc1nn2c(=O)cc(COC(=O)c3ccco3)nc2s1 11.1%, CCOc1ccc(-n2cc(-c3ccccc3)c3c(N4CCC(C)CC4)ncnc32)cc1 -20.5%, COc1ccc(-c2nnc(Nc3ccc(OC)c(C(N)=O)c3)c3ccccc23)cc1 -14%, CCS(=O)(=O)c1nc(S(=O)(=O)c2ccc(C)cc2)c(NC(C)c2ccccc2)s1 (stereo unspecified) -41.5%, Cc1ccc(S(=O)(=O)c2nc(-c3ccc(F)cc3)oc2SCC(=O)c2ccccc2)cc1 -17.1%, CCc1ccc2oc(-c3cccc(NC(=O)C(C)(C)Oc4ccc(Br)cc4)c3)nc2c1 13.6%, Cc1cc(C)cc(Nc2ncnc3onc(-c4ccc(F)cc4)c23)c1 -30.2%, O=C(c1ccc2c(c1)CCCC2)N1CCN(c2nc3ccc(F)cc3s2)CC1 -14.3%, CCOc1ccc(CNC(=O)c2cc3c(s2)-c2ccccc2OC3)cc1 -2.02%, COc1cc(NC(=O)NC(C)c2c(-n3cccc3)sc3c2CCN(C)C3)cc(OC)c1 (stereo unspecified) -11.2%, COc1cccc(-n2c(SCC(=O)N3CCCc4ccccc43)nc3c([nH]c4ccccc43)c2=O)c1 -28.8%, CCc1ccc(S(=O)(=O)NCc2nc3cccnc3n2Cc2ccccc2Cl)cc1 -21.7%, CCCOc1ccc(CNC(=O)Cn2cc3c(n2)-c2c(oc(C(=O)N4CCOCC4)c2C)CC3)cc1 -34.9%, COc1ccc(Cl)cc1NC(=O)Cn1c(=O)n(CCCC(=O)NCCc2ccc(OC)c(OC)c2)c(=O)c2ccccc21 -20.8%, O=C(CCSCc1cccc(F)c1)NCc1ccccc1 -4.17%, O=C(CSc1cn(CCNC(=O)c2ccccc2F)c2ccccc12)Nc1ccc(F)cc1 -16.8%, COc1cccc(N2C(=O)CSC23C(=O)N(CC(=O)Nc2cccc(Cl)c2)c2ccccc23)c1 (stereo unspecified) -21.7%, CN1CC(=O)N2C(Cc3c([nH]c4ccccc34)[C@H]2c2ccc3c(c2)OCO3)C1=O (stereo partly specified) -32%, COc1cc(CN(C(=O)COc2ccccc2Cl)c2ccccn2)cc(OC)c1OC -13.7%, COc1cccc(-n2c(-c3ccco3)nc3c(cnn3-c3ccc(Cl)cc3)c2=O)c1 -31.9%, CCOc1ccc(-n2c(=O)c3c4c(sc3n(CC(=O)NC(C)CC)c2=O)CCC4)cc1 (stereo unspecified) 3.94%, O=S(=O)(c1ccc(Cl)cc1)c1nnn2c1nc(NCc1cccs1)c1sccc12 -36.7%, CN(C)S(=O)(=O)N(CC(=O)NCCSCc1cccc(Cl)c1)c1ccccc1 -17.4%, CCOC(=O)c1ccc(N2C(=O)c3n[nH]c(-c4cccs4)c3C2c2cccc(OC)c2)cc1 (stereo unspecified) -48.9%, CCC(=O)Nc1ccc2nc(SCc3ccccc3)sc2c1 6.57%, CCC(CC)C(=O)N1CCc2cc(OC)c(OC)cc2C1COc1ccc(C(=O)OC)cc1 (stereo unspecified) -26.9%, COc1ccc(C)cc1NC(=O)CSc1nc(=O)[nH]c2c1CCCC2 -18.1%, CCC1CN(S(=O)(=O)c2ccc3c(c2)NC(=O)CC(=O)N3)c2cc(Cl)ccc2O1 (stereo unspecified) -24.5%, Cn1c(=O)c2c(-c3ccccc3Cl)n(Cc3ccc(Cl)cc3)cc2n(C)c1=O -17.8%, Cc1cccc(N2CCN(C(=O)CCC(=O)NNc3nc4ccccc4c4nc(C)nn34)CC2C)c1 (stereo unspecified) -22.2%, COc1cc(C2c3c(-c4c(C)cc(C)cc4O)n[nH]c3C(=O)N2CCCOC(C)C)cc(OC)c1OC (stereo unspecified) -21%, CCc1ccccc1NC(=O)CN1C(=O)COc2ccc(S(=O)(=O)Nc3ccccc3)cc21 -25.7%, CCN1CCN(c2cc(-c3ccc(F)cc3)c3c(n2)CCCCCC3)CC1 -3.27% [at 25.1 µM, percent change from vehicle, -100% = no light], C#CCN(C)CC1=Cc2ccccc2Oc2ccccc21 -15.9%, Cc1ccc(N2CC(c3nnc(Cc4ccccc4Cl)o3)CC2=O)cc1 (stereo unspecified) -15.7%, COc1ccccc1Cc1nc2ccccc2nc1SCC(=O)Nc1ccccc1C(F)(F)F -1.41%, COc1ccc(-c2nc3c(C#N)c[nH]n3c2NC2CCCC2)cc1 22%, COc1ccc(S(=O)(=O)n2nc(-c3ccco3)nc2NCc2ccc(OC)c(OC)c2)cc1 -16.3%, COc1ccc(N(C(=O)c2ccc(Cl)cc2)S(=O)(=O)c2ccc(C)cc2)cc1 -20%, CCN1CCN(c2c(S(=O)(=O)c3ccc(Cl)cc3)cnc3ccccc23)CC1 -1.08%, CC(NC(=O)c1ccc(Cn2c(=O)c3cccn3c3cccnc32)cc1)c1ccccc1 (stereo unspecified) -20.1%, Cc1ccc(NC(=O)Cn2c(=O)n(CCCS(=O)(=O)C3CCCCC3)c(=O)c3ccccc32)cc1F -11.9%, COc1ccc(C(=O)c2oc3ccccc3c2NC(=O)COc2ccc(C)cc2)cc1 9.74%, COc1ccc(S(=O)(=O)c2cc3cc(OC)ccc3oc2=O)cc1 19.9%, CCc1ccccc1NC(=O)N1CCc2cc(OC)c(OC)cc2C1CC(=O)OC (stereo unspecified) -5.1%, Cc1ccc(C)c(Nc2nc3c(S(=O)(=O)c4ccc(Br)cc4)nnn3c3ccsc23)c1 -49%, CC1CCCCN1c1nc(-c2ccc(C(C)(C)C)cc2)nc2ccccc12 (stereo unspecified) -0.103%, CCOC(=O)c1cc(OC(=O)c2cccc(Cl)c2)n(-c2ccccc2)n1 -18.8%, Cc1ccc(C)c(N2CCN(C(=O)Cn3c(C)c4cnn(-c5ccccc5)c(=O)c4c3C)CC2)c1 -46.6%, COc1cc(NC(=O)Cn2c(=O)nc(-c3ccccc3F)c3cc(Cl)ccc32)cc(OC)c1 -85.6%, CCN(C(=O)Cn1cc(C(=O)c2ccc(F)cc2)c(=O)c2ccc(C)nc21)c1cccc(C)c1 -26.6%, COC(=O)c1ccccc1NC(=O)Cn1nc(C(F)(F)F)c2c1CCCC2 -26.9%, CCOc1ccc(C(=O)N2CCC(c3ccncc3)CC2)cc1 -35.9%, CCC1CN(C(=O)N2CCC(C(=O)NCc3ccco3)CC2)c2cc(C)ccc2O1 (stereo unspecified) -23.1%, CC(C)c1nc2ccc(C(=O)NCCCN3CCN(c4ccc(F)cc4)CC3)cc2o1 12.5%, COc1cccc(-n2c(-c3ccc(C)cc3)cc3c2CC(C)(C)CC3=O)c1 -17.2%, Cc1cc(C)c2c(CC(=O)Nc3c(C(=O)c4ccc(F)cc4)oc4ccccc34)coc2c1 -1.4%, Cc1ccc2c(c1)CC(C)N2S(=O)(=O)c1nnc(NC(=O)CC(C)C)s1 (stereo unspecified) -28.3%, CC(C)c1ccc2occ(CC(=O)Nc3cccc(C(F)(F)F)c3)c2c1 -73.3%, COc1ccc(OC)c(NC(=O)CCc2c(C)nc3c(c(C)nn3C(C)(C)C)c2C)c1 -31.6%, COc1ccccc1N1CCN(c2cc(C)nc3c(-c4ccc(Cl)cc4)c(C)nn23)CC1 -6.77%, CN(C)c1ccc(CNC(=O)CCn2c(=O)c3cccn3c3ccc(F)cc32)cc1 -11.3%, COc1cccc(-c2[nH]c3c(c2-c2c(-n4cccc4)n(C)c(=O)[nH]c2=O)c(=O)[nH]c(=O)n3C)c1 -6.44%, COCCCNc1nc2c(c(=O)n(C)c(=O)n2C)n1Cc1ccccc1 -20%, COCCOC(=O)C1=C(C)N=C2SCCC(=O)N2C1c1ccc(OCc2ccccc2)c(OC)c1 (stereo unspecified) -11.1%, COCCNC(=O)CCSc1nc(-c2ccc3c(c2)OCO3)cc(C(F)(F)F)n1 -22.4%, CCc1nnc2c(NCc3cccc(OC)c3)nc3ccccc3n12 -9.83%, CCOc1ccccc1C(=O)Nc1nnc(COC)s1 18.3%, Cc1ccc(C(=O)N2CCc3cc(CNC(=O)c4ccnn4C)ccc32)cc1 -41.5%, CCN(CC)S(=O)(=O)c1ccc2c(c1)c(=O)c(C(=O)NCc1ccccc1OC)cn2C -9.42%, Cc1cn(C)c(CC(=O)N2CCN(c3ccc(F)cc3)CC2)c1C(=O)O -5.84%, Cn1c(=O)c2c(ncn2C)n(C)c1=O, Cc1ccc(NS(=O)(=O)c2ccc3c(c2)NC(=O)CCS3)cc1F -33%, O=C(NCc1ccc2c(c1)CCN2C(=O)c1ccccc1)c1ccc(Br)o1 -0.675%, Cc1ccc(-c2nc(-c3cc4cccc(OCc5cccc(F)c5)c4oc3=O)no2)cc1 -7.71%, CCOc1ccc(-n2c(Cc3ccccc3)nnc2SCc2nc(-c3cccs3)no2)cc1 -17%, O=C(Nc1ccc(Br)cc1)c1ccc(Cl)c(S(=O)(=O)N2CCCCCC2)c1 -27.6%, COc1cccc(NC(=O)c2sc3nc(C)c(C(=O)Nc4ccc(C)cc4C)c(-c4cccs4)c3c2N)c1 -7.56%, Cc1cc(C)cc(NC(=O)C2CCN(S(=O)(=O)c3c(C)noc3/C=C/c3ccco3)CC2)c1 -12.6%, Cc1ccn2c(Nc3c(C)cccc3C)c(-c3ccc(Cl)s3)nc2c1 -5.22%, CCCCN(CCCC)C1=C(C(=O)c2ccccc2)N(CC)S(=O)(=O)c2ccccc21 -39.5%, COC(=O)CN1C(=O)C(C)(C)c2cc(S(=O)(=O)NCc3ccc(Cl)cc3)ccc21 -6.37%, Cc1ccc2scc(N3CCN(c4cccc(C(F)(F)F)c4)CC3)c(=O)c2c1 7.32%, CCc1ccc(NC(=O)c2ccc3c(O)c(S(=O)(=O)c4ccccc4)c(=O)[nH]c3c2)cc1 0.223%, COc1ccccc1C(=O)Nc1ccc(OCc2cc(=O)n3cccc(C)c3n2)cc1 -8.23%, Cc1cc(NC(=O)CSc2nc3c([nH]c4ccccc43)c(=O)n2-c2ccc(Cl)cc2)no1 -18.1%, Cc1cc(=O)n(Cc2ccccc2Cl)c2c1c(C)nn2-c1ccccc1 -10.4%, O=C(NCC1CCN(Cc2ccccc2Cl)CC1)c1cc2ccc3cccnc3c2[nH]1 -0.48%, O=C(CC1Oc2ccccc2NC1=O)NCc1ccc(F)cc1 (stereo unspecified) -6.93%, COc1ccc(CC(=O)Nc2nnc3n2CCS3)cc1 -1.76%, Cc1ccc(CSc2nc3ccsc3c(=O)n2CCC(C)C)cc1 -16%, Cc1cccc(OCc2nnc(-c3ccccc3)o2)c1 22.6%, CCN1CCN(C(=O)c2ccc3c(c2)N(Cc2ccc(F)cc2)C(=O)c2ccccc2S3(=O)=O)CC1 -13.8%, CCOc1ccc(NC(=O)c2oc(=O)c3ccccc3c2-c2ccc(C)cc2)cc1 -21.7%, CCn1c2c(c(=O)n3ncc(C(=O)Nc4ccc(F)cc4Cl)c13)CN(Cc1ccc(OC)cc1)CC2 -21.2%, CCCN(CCC)c1cc(C)nc2nc(-c3ccc(Cl)cc3)nn12 -5.52%
